Results as given in a compilation of properties of binary mixtures (doi:10.1021/je400097b).
Some of these densities may be calculated back from excess volumes.

Experiment: xn = mol fraction of the nth substance listed
Conditions: 101 kPa

O + CC[NH+](C)CC.O=S(=O)([O-])C(F)(F)F
mass density (353.15 K, x1 = 1): 970.1 kg/m3

CC[NH+](C)CC.O=S(=O)([O-])C(F)(F)F + O
mass density (293.15 K, x2 = 0.037): 1294.1 kg/m3
mass density (293.15 K, x2 = 0.434): 1278 kg/m3
mass density (293.15 K, x2 = 0.586): 1259.2 kg/m3
mass density (293.15 K, x2 = 0.844): 1195.9 kg/m3
mass density (293.15 K, x2 = 0.925): 1135 kg/m3
mass density (293.15 K, x2 = 0.972): 1062.8 kg/m3
mass density (313.15 K, x2 = 0.434): 1261.5 kg/m3
mass density (313.15 K, x2 = 0.586): 1243.3 kg/m3
mass density (313.15 K, x2 = 0.759): 1211.9 kg/m3
mass density (313.15 K, x2 = 0.844): 1180.8 kg/m3
mass density (313.15 K, x2 = 0.925): 1122 kg/m3
mass density (313.15 K, x2 = 0.972): 1053 kg/m3
mass density (333.15 K, x2 = 0.037): 1261.4 kg/m3
mass density (333.15 K, x2 = 0.586): 1227.3 kg/m3
mass density (333.15 K, x2 = 0.925): 1107.7 kg/m3
mass density (333.15 K, x2 = 0.972): 1041.1 kg/m3
mass density (353.15 K, x2 = 0.037): 1245.5 kg/m3
mass density (353.15 K, x2 = 0.586): 1210.6 kg/m3
mass density (353.15 K, x2 = 0.844): 1147.3 kg/m3
mass density (353.15 K, x2 = 0.925): 1091 kg/m3
mass density (353.15 K, x2 = 0.972): 1027.3 kg/m3
